Source: article PMC4336329 (PLoS ONE, 2015)
About 2,200 (0.71%) of roughly 310,000 compounds showed an effect of 50% or more. Effects have a minus sign here. This is one part of the list.

What follows are molecules tested against human ether-à-go-go-related gene (hERG) potassium channel (human, UniProt Q12809) (assay: primary screen, population patch clamp on CHO cells stably expressing hERG).
human ether-à-go-go-related gene (hERG) potassium channel, sequence (Q12809 whole entry, looked up): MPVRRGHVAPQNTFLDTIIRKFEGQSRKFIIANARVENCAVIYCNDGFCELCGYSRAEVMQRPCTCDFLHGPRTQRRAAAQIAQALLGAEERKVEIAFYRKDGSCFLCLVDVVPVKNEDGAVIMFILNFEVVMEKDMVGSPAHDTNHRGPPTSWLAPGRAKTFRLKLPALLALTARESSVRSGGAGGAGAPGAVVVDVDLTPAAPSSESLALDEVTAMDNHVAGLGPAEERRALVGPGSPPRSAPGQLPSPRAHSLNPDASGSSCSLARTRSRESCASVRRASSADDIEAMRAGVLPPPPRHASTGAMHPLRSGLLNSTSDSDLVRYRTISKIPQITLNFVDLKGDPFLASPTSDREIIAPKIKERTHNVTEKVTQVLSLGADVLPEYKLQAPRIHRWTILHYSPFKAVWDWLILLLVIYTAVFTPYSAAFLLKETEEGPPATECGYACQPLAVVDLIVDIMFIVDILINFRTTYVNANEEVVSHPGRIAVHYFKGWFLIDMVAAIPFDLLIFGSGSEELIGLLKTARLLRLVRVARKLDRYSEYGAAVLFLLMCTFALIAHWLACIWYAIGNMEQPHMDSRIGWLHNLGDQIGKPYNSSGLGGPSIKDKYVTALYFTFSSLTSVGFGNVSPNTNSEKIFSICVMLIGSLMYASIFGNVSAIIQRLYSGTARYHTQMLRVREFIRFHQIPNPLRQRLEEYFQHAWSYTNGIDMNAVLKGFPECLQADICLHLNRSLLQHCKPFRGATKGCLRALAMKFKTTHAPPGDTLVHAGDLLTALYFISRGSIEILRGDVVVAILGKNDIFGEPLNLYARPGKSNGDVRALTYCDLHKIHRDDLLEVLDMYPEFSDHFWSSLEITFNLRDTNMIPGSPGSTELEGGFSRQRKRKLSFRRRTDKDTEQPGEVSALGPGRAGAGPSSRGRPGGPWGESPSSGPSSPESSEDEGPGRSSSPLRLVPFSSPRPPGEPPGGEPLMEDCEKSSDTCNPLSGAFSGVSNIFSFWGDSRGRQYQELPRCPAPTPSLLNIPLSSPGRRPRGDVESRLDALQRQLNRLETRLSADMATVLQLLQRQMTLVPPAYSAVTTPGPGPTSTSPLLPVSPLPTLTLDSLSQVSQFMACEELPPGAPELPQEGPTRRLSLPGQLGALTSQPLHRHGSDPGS
In the case of CCCCNC(=O)CSc1nc2cc3c(cc2c(=O)n1CCC(=O)NCCc1ccc(OC)c(OC)c1)OCO3, the “hERG current change (%, negative = inhibition) at 1uM” value is reported as 11.3%.
With Cc1oc2c(CN3CCCCC3)c(O)ccc2c(=O)c1-c1ccc(Br)cc1 the “hERG current change (%, negative = inhibition) at 1uM” value was 10.8%.
For CC(=O)Nc1ccc(NC(=O)CN(C)S(=O)(=O)c2ccc3ccccc3c2)cc1, the “hERG current change (%, negative = inhibition) at 1uM” value was 10.2%.
CC(C)c1cc(C(=O)N2CCN(C(c3ccccc3)c3ccccc3)CC2)no1 was tested, and the “hERG current change (%, negative = inhibition) at 1uM” value was -0.622%.
In the case of Cc1ccc(C)c(SCC(=O)NC(=O)Nc2ccc3c(c2)OCCO3)c1, the “hERG current change (%, negative = inhibition) at 1uM” value is reported as 6.19%.
With Cc1cccc(CSc2nc3ccccc3c(=O)n2C)c1 the “hERG current change (%, negative = inhibition) at 1uM” value was 2.06%.
CC1C(=O)Nc2ccc(S(=O)(=O)N3CCCCCC3)cc21 (centres unmarked) was tested, and the “hERG current change (%, negative = inhibition) at 1uM” value was 11.5%.
CC(=O)c1cccc(NC(=O)c2sc3nc4n(c(=O)c3c2C)CCCCC4)c1 was tested, and the “hERG current change (%, negative = inhibition) at 1uM” value was 2.97%.
For COc1ccc(-n2nnnc2SCC(=O)Nc2nnn(C)n2)cc1, the “hERG current change (%, negative = inhibition) at 1uM” value was -4.75%.
With COCCNC(=O)CN(C(=O)CCC(=O)Nc1ccccn1)c1ccc(F)cc1 the “hERG current change (%, negative = inhibition) at 1uM” value was 14.7%.
In the case of COc1ccccc1/C=C/C(=O)OCC(=O)Nc1c(C)nn(-c2ccccc2)c1C, the “hERG current change (%, negative = inhibition) at 1uM” value is reported as 14.2%.
With O=C(c1ccc(S(=O)(=O)NCc2ccco2)cc1)N1CCCC1 the “hERG current change (%, negative = inhibition) at 1uM” value was 9.99%.
O=C(c1ccccc1-n1cccc1)N1N=C(C(F)F)CC1(O)C(F)F (centres unmarked) was tested, and the “hERG current change (%, negative = inhibition) at 1uM” value was -10.9%.
COc1ccc(C(=O)Oc2ccc(Br)cc2C(=S)N2CCOCC2)cc1 was tested, and the “hERG current change (%, negative = inhibition) at 1uM” value was 6.83%.
Cc1cc(=O)oc2c(C)c(OC(=O)c3ccco3)ccc12 was tested, and the “hERG current change (%, negative = inhibition) at 1uM” value was 6.06%.
O=C(N/N=C/c1ccc(N2CCOCC2)cc1)C1COc2ccccc2O1 (centres unmarked) was tested, and the “hERG current change (%, negative = inhibition) at 1uM” value was 3.08%.
For COc1ccc(NC(=O)c2ccco2)c(NC(=O)Cc2cccs2)c1, the “hERG current change (%, negative = inhibition) at 1uM” value was 10.7%.
For CCCc1ccc(C(=O)NNc2ccccc2F)cc1, the “hERG current change (%, negative = inhibition) at 1uM” value was 10.8%.
With O=C(O)c1ccc2c3c(ncnc13)-c1ccccc1C2=O the “hERG current change (%, negative = inhibition) at 1uM” value was -10.1%.
For CCN(CC)S(=O)(=O)c1ccc(NC(=O)CN(c2cccc(F)c2)S(C)(=O)=O)cc1, the “hERG current change (%, negative = inhibition) at 1uM” value was 16%.
With Cc1cc(Cl)ccc1OC(C)C(=O)Nc1ccc(C(=O)Nc2ccccc2C(=O)O)cc1 (centres unmarked) the “hERG current change (%, negative = inhibition) at 1uM” value was 14.5%.
With CCN(CC)c1ccc(NC(=O)c2cccc(C)c2)cc1S(=O)(=O)Nc1ccccc1OC the “hERG current change (%, negative = inhibition) at 1uM” value was 11.2%.
For CC(C)[C@H](NS(=O)(=O)c1ccc2c(c1)OCCO2)C(=O)OCC(=O)Nc1cccc(Cl)c1Cl, the “hERG current change (%, negative = inhibition) at 1uM” value was 0.0262%.
In the case of COC(=O)COc1ccc(S(=O)(=O)N2CCN(c3ccccc3)CC2)cc1, the “hERG current change (%, negative = inhibition) at 1uM” value is reported as 16.6%.
With O=C(O)c1ccccc1Sc1ccccc1S(=O)(=O)NC1CCCCC1 the “hERG current change (%, negative = inhibition) at 1uM” value was 16.3%.
CC1(C)Cc2cccc(Oc3ccc(S(=O)(=O)N4CCCCC4)cn3)c2O1 was tested, and the “hERG current change (%, negative = inhibition) at 1uM” value was 5.66%.
In the case of COc1ccc(C(=O)C2CCCCC2=O)cc1 (centres unmarked), the “hERG current change (%, negative = inhibition) at 1uM” value is reported as 10.9%.
For COc1ccccc1N(C)S(=O)(=O)c1ccc(C(=O)O)cc1, the “hERG current change (%, negative = inhibition) at 1uM” value was 9.34%.
With Cc1cc(-c2ccc(C)c(S(=O)(=O)NCC3CCN(Cc4cccc(F)c4)CC3)c2)on1 the “hERG current change (%, negative = inhibition) at 1uM” value was 3.78%.
COc1ccccc1CNC(=O)COC(=O)c1cccc(S(=O)(=O)N2CCOCC2)c1 was tested, and the “hERG current change (%, negative = inhibition) at 1uM” value was -18%.
For COc1ccc(/C(C)=N/NC(=O)c2nnn(-c3nonc3N)c2-c2cccs2)cc1OC, the “hERG current change (%, negative = inhibition) at 1uM” value was 7.9%.
With O=C(O)C(Oc1ccc2c3c(c(=O)oc2c1)CCC3)c1ccccc1 (centres unmarked) the “hERG current change (%, negative = inhibition) at 1uM” value was -4.33%.
With Cc1cc(C(=O)NNC(=O)c2c(-c3c(Cl)cccc3Cl)noc2C)no1 the “hERG current change (%, negative = inhibition) at 1uM” value was 10.1%.
In the case of Cc1ccccc1CN1CCN(c2ccc(S(=O)(=O)N3CCCC3)cn2)CC1, the “hERG current change (%, negative = inhibition) at 1uM” value is reported as 7.73%.
With CCN(CC)S(=O)(=O)c1ccc(N2CC(C(=O)NCc3ccc4c(c3)OCO4)CC2=O)cc1 (centres unmarked) the “hERG current change (%, negative = inhibition) at 1uM” value was 8.58%.
For COc1ccc(C(CNC(=O)COc2ccc(Br)cc2F)N2CCCC2)cc1 (centres unmarked), the “hERG current change (%, negative = inhibition) at 1uM” value was -17.1%.
For CCc1sc(C(=O)NCc2ccco2)cc1Br, the “hERG current change (%, negative = inhibition) at 1uM” value was 2.94%.
With O=C(c1cccs1)N(Cc1nc2sc3c(c2c(=O)[nH]1)CCCC3)C1CCCC1 the “hERG current change (%, negative = inhibition) at 1uM” value was 7.7%.
With CCCCC1C2C(=O)N(c3ccc(C)cc3)C(=O)C2ON1c1ccccc1 (centres unmarked) the “hERG current change (%, negative = inhibition) at 1uM” value was 8.84%.
For COc1cccc(-c2cc(=O)c3cc(NC(=O)c4ccc(N(C)C)cc4)ccc3[nH]2)c1, the “hERG current change (%, negative = inhibition) at 1uM” value was 8.36%.
With O=C(NC(CCl)c1ccccc1)c1ccc(Cl)cc1 (centres unmarked) the “hERG current change (%, negative = inhibition) at 1uM” value was 10%.
For O=C(Nc1ccc(S(=O)(=O)NC2=NCCCCC2)cc1)c1ccc(=O)[nH]c1, the “hERG current change (%, negative = inhibition) at 1uM” value was 14.2%.
With CCOC(=O)c1sc(Nc2ccc(Br)cc2)nc1C the “hERG current change (%, negative = inhibition) at 1uM” value was 13%.
For CN(CCCNC(=O)c1cc2c(=O)[nH]c3ccccc3c2n1C)Cc1ccccc1, the “hERG current change (%, negative = inhibition) at 1uM” value was -3.23%.
